# Reference: the BET-seq Pho4 binding data (Le et al. 2018)
# This is one part of the list. These are noisy estimates, calculated here from bound and input reads.
# Molecular target: T1, Pho4 (S. cerevisiae) (UniProt P07270)
# T1 sequence: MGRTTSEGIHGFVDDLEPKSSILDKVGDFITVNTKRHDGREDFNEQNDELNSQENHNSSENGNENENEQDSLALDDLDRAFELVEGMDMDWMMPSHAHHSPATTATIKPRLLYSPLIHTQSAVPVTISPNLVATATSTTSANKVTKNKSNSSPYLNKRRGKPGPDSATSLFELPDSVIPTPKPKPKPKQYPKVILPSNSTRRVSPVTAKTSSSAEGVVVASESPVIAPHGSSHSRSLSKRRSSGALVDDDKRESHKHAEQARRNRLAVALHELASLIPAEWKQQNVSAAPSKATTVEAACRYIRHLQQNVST
# Experiment: relative binding free energy (BET-seq); higher = weaker binding
# Settings: reference: library average
row,Sequence,relative binding free energy [kcal/mol]
1,GTGCACACGTGGAGAG,0.12
2,TAGGGCACGTGAATAG,0.11
3,GAGTGCACGTGGTGTA,0.05
4,ATAGTCACGTGGGTTC,0.04
5,AGATTCACGTGGATGT,0.37
6,TGATTCACGTGCGGTA,0.32
7,TTGTGCACGTGAGCGA,-0.01
8,ATGTTCACGTGCTGTA,0.14
9,CATGTCACGTGGTGTG,-0.03
10,AAGATCACGTGATTAT,0.35
11,ACATGCACGTGTATGG,-0.01
12,TTAAACACGTGCGGGG,-0.17
13,GTGTTCACGTGAGGGC,0.53
14,TGGGTCACGTGTTTAA,0.22
15,ATGTGCACGTGATATA,0
16,ATAAGCACGTGTTTGT,-0.16
17,TGTGTCACGTGAGAAT,0.32
18,GTCTTCACGTGGGCTT,0.23
19,CTTTTCACGTGAAAGT,0.34
20,TCGTGCACGTGGGCTA,-0.23
21,CGGTGCACGTGGGAGC,-0.08
22,TCATACACGTGTTCGT,0.08
23,AGATGCACGTGGCTTG,-0.15

row,Sequence,relative binding free energy [kcal/mol]
1,CAGTTCACGTGTGGAT,0.38
2,TGTCGCACGTGAGAGG,0.03
3,AGCTACACGTGGTTGG,0.08
4,TTGAGCACGTGGCGGA,-0.22
5,TTTAACACGTGGAAGG,0.26
6,TACGGCACGTGGTGCG,-0.26
7,ATTGGCACGTGTAAAG,0.03
8,CGGGTCACGTGTTGCT,0.09
9,GAGGACACGTGGTGAG,0.26
10,ACTGTCACGTGGTTTG,0.05
11,TAGATCACGTGATCTG,0.37
12,GGCGTCACGTGGAGGT,-0.01
13,TGCGCCACGTGAAGGG,0.11
14,ATGCGCACGTGAAGGA,0.21
15,GGTAGCACGTGGCGGT,-0.07
16,CTGGTCACGTGGTGCA,-0.05
17,GCGTGCACGTGAGTTG,0.36
18,TAGGTCACGTGCTGTT,0.14
19,AAGAACACGTGTGTTA,0.15
20,GGACGCACGTGGTTAG,-0.23
21,TAGGTCACGTGGTACG,0.06
22,ATTCACACGTGGTGAG,0.08
23,CGTGCCACGTGTGGTA,-0.02

row,Sequence,relative binding free energy [kcal/mol]
1,TGGCACACGTGGTGTA,-0.19
2,TGTAACACGTGAGTTG,0.29
3,GTAGTCACGTGGGGGT,0.04
4,GAATGCACGTGCTTGG,-0.02
5,TTGGTCACGTGGTAAG,0.15
6,TTTGTCACGTGAGGCT,0.36
7,TTGTCCACGTGGTAGT,-0.16
8,CTGTTCACGTGCTTAG,0.31
9,TTGAGCACGTGAAGTG,0.14
10,AGTCTCACGTGACGTG,0.42
11,GTGGTCACGTGGATAA,0.24
12,GAGTTCACGTGTGTCG,0.24
13,AGAAGCACGTGTATGT,-0.01
14,GGGGTCACGTGTTTGC,0.09
15,TAATTCACGTGTATGC,0.27
16,TTGTTCACGTGCTTAG,0.1
17,TCGTCCACGTGGTGTT,-0.13
18,ATACTCACGTGGAGGT,0.11
19,GTGCGCACGTGGTGGT,-0.12
20,AGATGCACGTGGGGTG,-0.11
21,CAGGTCACGTGGACAG,0.27
22,GTTGACACGTGGTGAT,-0.05
23,TGATACACGTGGTATG,-0.09

row,Sequence,relative binding free energy [kcal/mol]
1,GCGAGCACGTGGTTTG,-0.13
2,ATGGTCACGTGTACGA,0.15
3,TCGTGCACGTGAGTAG,0.25
4,CTTTTCACGTGGATGG,0.24
5,GTGGTCACGTGTCGAT,0.22
6,AATAGCACGTGAGTGA,0.19
7,GGATCCACGTGCGGTT,0.19
8,AGCGTCACGTGGCTGT,0.01
9,TTGATCACGTGCTGTG,0.07
10,TGTTGCACGTGATAAT,0.1
11,TATTGCACGTGAGTTG,0.26
12,AGAGTCACGTGACTTT,0.36
13,TTAGTCACGTGAGGGA,0.32
14,CCGGGCACGTGGAGGG,-0.18
15,AGCGTCACGTGTGGCT,0.03
16,TAATTCACGTGATGAG,0.33
17,AGGTTCACGTGATGGT,0.36
18,GTAGGCACGTGGTAGA,-0.18
19,GTTGTCACGTGTAAGA,0.3
20,GTGTGCACGTGTAATA,0
21,ATTGACACGTGGGGCG,-0.12
22,CGAATCACGTGAGTGG,0.24
23,AGTTTCACGTGTGTCG,0.2

row,Sequence,relative binding free energy [kcal/mol]
1,CATTGCACGTGGGAAG,0.02
2,GGGCGCACGTGAGCGG,0
3,TTGCACACGTGGGTTG,-0.25
4,TTGTTCACGTGGATGC,0.24
5,TTTAGCACGTGCGAGA,-0.03
6,TTGGCCACGTGTGGGT,-0.05
7,TCATGCACGTGTTGCT,0.03
8,ATTTCCACGTGAAGGG,0.23
9,TGAATCACGTGAAGGG,0.16
10,CGTATCACGTGAGCGG,0.22
11,TATACCACGTGGGATT,-0.03
12,AGGCACACGTGTGTTA,0.09
13,TTCGACACGTGTATTG,0.17
14,GGTGGCACGTGCATGG,-0.14
15,TATGGCACGTGGTCTT,-0.18
16,TATTTCACGTGCGTCG,0.23
17,CAAGTCACGTGGAGAG,0.2
18,GGAGTCACGTGGGGGC,0.02
19,TTGGACACGTGTTGGT,0.11
20,AGGTGCACGTGCTTTT,-0.22
21,GGTTACACGTGAGGTC,0.33
22,TTGGACACGTGTTGGG,0.1
23,TGTGGCACGTGCGCGT,-0.31
